Assays:
Fatty acid synthase [1] = molecular target: Fatty acid synthase (Homo sapiens, UniProt P49327)
Fatty acid synthase [2] = molecular target: T1, Fatty acid synthase (Rattus norvegicus, UniProt P12785)
in vitro [3] = conditions: plasma
in vivo [4] = conditions: Sprague-Dawley, rat, po, 15 mg/kg
in vivo [5] = conditions: rat, po, 50 mg/kg
in vivo [6] = conditions: rat, po, 50 mg/kg; remark: listed apart in the source
in vivo [7] = conditions: rat, iv, 1 mg/kg
in vivo [8] = conditions: rat, iv, 1 mg/kg; remark: listed apart in the source
Fatty acid synthase [9] = molecular target: T1, Fatty acid synthase; remark: listed apart in the source
in vivo [10] = conditions: rat, iv, 1 mg/kg; remark: listed apart in the source
in vivo [11] = conditions: rat, iv, 1 mg/kg; remark: listed apart in the source
in vitro [12] = conditions: human, huh-7
in vivo [13] = conditions: rat, po, 50 mg/kg; remark: listed apart in the source
Rattus norvegicus [14] = species on record: Rattus norvegicus; assay: animal or person; conditions: Sprague-Dawley, po, read-out: INH
Rattus norvegicus [15] = species on record: Rattus norvegicus; assay: animal or person; conditions: Sprague-Dawley, po, read-out: INH; remark: listed apart in the source
in vivo [16] = conditions: Sprague-Dawley, rat, po, 50 mg/kg
Hepatitis C virus = assay: microbe, parasite or virus in culture; conditions: genotype 1b, Huh-7, 72 h

T1 sequence (P12785 whole entry): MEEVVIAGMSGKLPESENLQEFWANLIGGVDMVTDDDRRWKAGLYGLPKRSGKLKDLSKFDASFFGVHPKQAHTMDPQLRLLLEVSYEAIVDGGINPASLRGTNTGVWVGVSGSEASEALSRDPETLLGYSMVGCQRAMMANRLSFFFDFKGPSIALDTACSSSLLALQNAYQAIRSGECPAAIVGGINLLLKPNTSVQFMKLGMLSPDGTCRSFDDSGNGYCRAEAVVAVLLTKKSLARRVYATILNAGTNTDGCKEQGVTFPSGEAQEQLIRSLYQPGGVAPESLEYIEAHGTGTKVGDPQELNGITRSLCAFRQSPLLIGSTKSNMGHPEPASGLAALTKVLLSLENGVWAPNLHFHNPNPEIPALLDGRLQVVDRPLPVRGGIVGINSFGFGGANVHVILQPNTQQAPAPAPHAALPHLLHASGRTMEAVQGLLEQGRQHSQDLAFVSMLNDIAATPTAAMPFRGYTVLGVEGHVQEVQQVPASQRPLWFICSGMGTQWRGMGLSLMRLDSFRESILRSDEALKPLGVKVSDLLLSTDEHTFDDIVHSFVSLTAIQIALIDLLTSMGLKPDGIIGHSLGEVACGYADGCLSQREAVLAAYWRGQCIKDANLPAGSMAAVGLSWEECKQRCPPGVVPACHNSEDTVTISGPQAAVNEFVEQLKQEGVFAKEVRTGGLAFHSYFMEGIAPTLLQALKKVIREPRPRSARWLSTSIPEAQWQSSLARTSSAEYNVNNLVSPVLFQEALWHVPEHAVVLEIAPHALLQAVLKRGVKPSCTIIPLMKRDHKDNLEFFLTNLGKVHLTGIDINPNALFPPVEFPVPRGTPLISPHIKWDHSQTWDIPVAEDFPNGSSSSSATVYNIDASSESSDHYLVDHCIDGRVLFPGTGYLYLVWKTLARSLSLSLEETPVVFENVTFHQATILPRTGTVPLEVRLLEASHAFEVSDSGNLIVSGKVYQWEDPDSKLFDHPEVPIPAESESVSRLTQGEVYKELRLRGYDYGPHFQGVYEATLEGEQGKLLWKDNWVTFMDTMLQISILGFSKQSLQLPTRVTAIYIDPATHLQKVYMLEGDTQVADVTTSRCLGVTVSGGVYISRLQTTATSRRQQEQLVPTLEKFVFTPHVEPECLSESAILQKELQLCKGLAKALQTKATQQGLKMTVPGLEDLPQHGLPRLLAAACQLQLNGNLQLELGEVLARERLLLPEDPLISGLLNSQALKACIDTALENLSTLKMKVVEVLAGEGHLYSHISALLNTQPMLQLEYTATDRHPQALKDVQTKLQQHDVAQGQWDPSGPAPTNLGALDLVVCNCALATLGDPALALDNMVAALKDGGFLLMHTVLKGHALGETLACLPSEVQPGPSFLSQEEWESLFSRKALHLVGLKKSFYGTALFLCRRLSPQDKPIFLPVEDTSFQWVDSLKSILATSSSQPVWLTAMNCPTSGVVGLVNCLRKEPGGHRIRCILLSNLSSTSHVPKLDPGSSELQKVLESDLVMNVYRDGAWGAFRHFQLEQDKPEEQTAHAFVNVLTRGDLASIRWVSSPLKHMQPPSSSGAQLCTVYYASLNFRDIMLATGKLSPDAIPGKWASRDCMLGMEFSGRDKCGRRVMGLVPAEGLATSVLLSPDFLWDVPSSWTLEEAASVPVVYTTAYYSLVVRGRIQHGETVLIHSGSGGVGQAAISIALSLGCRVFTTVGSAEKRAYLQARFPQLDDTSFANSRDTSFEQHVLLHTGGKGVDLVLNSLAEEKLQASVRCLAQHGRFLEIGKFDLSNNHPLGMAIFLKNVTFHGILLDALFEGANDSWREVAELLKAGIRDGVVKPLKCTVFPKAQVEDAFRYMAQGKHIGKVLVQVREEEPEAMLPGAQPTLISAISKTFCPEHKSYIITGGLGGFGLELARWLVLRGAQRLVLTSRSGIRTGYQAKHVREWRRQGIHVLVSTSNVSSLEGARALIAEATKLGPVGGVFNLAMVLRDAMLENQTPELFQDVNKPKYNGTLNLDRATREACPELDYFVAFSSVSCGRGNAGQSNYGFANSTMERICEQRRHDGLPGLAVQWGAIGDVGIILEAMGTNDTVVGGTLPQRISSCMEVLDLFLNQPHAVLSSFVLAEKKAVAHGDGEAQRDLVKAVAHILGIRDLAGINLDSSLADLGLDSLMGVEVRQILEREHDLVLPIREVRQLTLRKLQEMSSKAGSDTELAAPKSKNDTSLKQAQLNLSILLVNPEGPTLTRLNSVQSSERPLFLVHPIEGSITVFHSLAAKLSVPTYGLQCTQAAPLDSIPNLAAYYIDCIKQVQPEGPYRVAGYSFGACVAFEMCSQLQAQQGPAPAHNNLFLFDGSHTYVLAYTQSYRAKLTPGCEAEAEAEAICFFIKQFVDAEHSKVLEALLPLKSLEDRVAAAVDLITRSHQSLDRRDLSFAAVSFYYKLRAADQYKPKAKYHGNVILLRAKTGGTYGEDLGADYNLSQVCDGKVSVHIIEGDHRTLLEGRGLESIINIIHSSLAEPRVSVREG
Fatty acid synthase (Homo sapiens, UniProt P49327), sequence (P49327 whole entry): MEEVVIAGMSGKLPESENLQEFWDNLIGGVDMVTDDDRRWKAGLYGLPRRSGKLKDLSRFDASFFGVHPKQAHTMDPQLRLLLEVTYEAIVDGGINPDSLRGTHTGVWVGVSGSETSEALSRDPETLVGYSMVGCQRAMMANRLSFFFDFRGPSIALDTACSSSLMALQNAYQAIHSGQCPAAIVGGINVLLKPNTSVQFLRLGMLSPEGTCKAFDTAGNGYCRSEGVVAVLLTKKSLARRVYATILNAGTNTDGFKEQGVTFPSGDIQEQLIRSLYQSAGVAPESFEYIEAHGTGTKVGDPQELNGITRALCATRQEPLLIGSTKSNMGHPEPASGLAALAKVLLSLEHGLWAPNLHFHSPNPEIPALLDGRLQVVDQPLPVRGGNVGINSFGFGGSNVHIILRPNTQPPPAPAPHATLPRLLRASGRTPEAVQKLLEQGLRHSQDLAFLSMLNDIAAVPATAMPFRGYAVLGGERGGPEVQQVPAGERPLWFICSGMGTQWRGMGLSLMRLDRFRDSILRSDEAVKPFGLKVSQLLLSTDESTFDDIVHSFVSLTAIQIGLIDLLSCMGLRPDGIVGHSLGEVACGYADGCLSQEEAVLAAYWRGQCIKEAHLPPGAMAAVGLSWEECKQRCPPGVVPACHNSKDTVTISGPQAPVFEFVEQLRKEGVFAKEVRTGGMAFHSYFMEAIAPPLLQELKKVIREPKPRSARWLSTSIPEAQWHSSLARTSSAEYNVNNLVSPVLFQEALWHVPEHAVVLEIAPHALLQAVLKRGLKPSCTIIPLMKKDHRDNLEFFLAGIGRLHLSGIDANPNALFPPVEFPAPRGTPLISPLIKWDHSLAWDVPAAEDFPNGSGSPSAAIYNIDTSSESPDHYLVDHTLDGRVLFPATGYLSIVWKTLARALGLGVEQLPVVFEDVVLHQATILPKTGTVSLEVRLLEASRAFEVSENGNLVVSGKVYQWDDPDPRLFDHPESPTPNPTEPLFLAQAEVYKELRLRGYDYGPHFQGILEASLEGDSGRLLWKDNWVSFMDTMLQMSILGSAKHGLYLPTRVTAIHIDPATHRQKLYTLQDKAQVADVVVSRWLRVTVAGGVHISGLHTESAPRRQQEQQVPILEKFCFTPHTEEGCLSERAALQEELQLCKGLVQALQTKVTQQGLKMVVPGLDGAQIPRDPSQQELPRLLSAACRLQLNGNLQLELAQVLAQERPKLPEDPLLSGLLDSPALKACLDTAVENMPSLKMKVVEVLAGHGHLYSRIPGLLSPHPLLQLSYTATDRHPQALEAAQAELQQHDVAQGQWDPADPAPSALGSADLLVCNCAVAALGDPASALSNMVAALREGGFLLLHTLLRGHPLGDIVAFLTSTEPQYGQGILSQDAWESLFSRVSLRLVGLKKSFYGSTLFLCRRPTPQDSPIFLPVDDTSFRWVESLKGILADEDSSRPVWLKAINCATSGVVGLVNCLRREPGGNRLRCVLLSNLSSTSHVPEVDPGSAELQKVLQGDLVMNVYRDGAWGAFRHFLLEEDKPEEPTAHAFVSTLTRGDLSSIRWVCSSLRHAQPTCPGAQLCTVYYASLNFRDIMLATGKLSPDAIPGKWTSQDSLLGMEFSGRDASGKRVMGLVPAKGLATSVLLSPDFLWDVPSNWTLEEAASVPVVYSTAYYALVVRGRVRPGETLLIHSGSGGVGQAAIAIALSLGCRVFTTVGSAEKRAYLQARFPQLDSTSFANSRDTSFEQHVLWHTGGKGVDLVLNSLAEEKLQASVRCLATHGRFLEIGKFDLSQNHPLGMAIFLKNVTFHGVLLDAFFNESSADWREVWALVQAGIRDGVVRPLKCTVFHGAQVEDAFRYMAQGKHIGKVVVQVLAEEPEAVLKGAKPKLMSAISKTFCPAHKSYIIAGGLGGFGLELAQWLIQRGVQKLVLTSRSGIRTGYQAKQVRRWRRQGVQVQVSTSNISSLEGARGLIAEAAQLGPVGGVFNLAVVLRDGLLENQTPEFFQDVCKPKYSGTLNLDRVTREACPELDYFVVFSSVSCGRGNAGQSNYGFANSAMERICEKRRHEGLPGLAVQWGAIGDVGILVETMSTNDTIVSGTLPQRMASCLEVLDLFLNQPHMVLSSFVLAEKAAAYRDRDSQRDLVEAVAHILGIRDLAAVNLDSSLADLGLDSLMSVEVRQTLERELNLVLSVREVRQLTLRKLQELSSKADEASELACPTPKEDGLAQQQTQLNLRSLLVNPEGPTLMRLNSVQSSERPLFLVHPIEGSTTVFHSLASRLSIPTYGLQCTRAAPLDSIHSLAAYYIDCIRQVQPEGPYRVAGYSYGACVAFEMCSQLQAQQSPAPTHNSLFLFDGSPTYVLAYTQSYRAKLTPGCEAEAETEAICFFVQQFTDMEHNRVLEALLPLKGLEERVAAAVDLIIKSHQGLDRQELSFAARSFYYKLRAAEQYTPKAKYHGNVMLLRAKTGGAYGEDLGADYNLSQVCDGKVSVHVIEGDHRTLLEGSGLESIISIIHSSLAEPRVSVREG

`Cc1ccc(C(=O)N2CCC(c3ccc(C#N)cc3)CC2)cc1NC(=O)c1ccc(N2CCCC2)nc1` gave an IC50 (Fatty acid synthase [1]) of 50 nM.
`Cc1ccc(C(=O)N2CCC(c3ccc(C#N)cc3)CC2)cc1C(=O)Nc1ccc(N2CCCC2)nc1` showed an IC50 (Fatty acid synthase [2]) of 28500 nM and a half-life (in vitro [3]) greater than 10 h.
Molecule `Cc1cc(C)c(-c2nc3cc(N4CCCC4)ncc3[nH]2)cc1C(=O)N1CCC(c2ccc(C#N)cc2)CC1` has a concentration at 8 h (in vivo [4]) of 130 nM, an AUC (in vivo [5]) of 18200 ng·h/mL and a bioavailability (in vivo [6]) of 88%. The Vd (in vivo [7]) was 2 L/kg, the clearance (in vivo [8]) was 36 mL/min/kg and the IC50 (Fatty acid synthase [9]) was 62 nM. It also gave an IC50 (Fatty acid synthase [2]) of 160 nM, a half-life (in vivo [10]) of 0.7 h and an AUC (in vivo [11]) of 460 ng·h/mL. The CC50 at 72 h (in vitro [12]) was greater than 3000 nM, the half-life (in vivo [13]) was 3.2 h and the inhibition in vivo at 15 mg/kg (Rattus norvegicus [14]) was 2%. For the same molecule, the inhibition in vivo at 50 mg/kg (Rattus norvegicus [15]) was 40% and the concentration at 8 h (in vivo [16]) was 3400 nM.
For `Cc1cc(C)c(-c2nc3cc(N4CCN(C)CC4)ncc3[nH]2)cc1C(=O)N1CCC(c2ccc(C#N)cc2)CC1`, the EC50 (Hepatitis C virus) was 520 nM, the IC50 (Fatty acid synthase [2]) was 3840 nM and the CC50 at 72 h (in vitro [12]) was greater than 20000 nM.
For `Cc1cc(C(=O)N2CCC(c3ccc(C#N)cc3)CC2)cc(-c2nc3cc(N4CCCC4)ncc3[nH]2)c1`, the IC50 (Fatty acid synthase [1]) was greater than 50000 nM and the IC50 (Fatty acid synthase [2]) was greater than 50000 nM.

Reference: ChEMBL document CHEMBL2321667, “Imidazopyridine-Based Fatty Acid Synthase Inhibitors That Show Anti-HCV Activity and in Vivo Target Modulation” (ACS Med Chem Lett, 2013)
